PubChem BioAssay AID1347165 (National Center for Advancing Translational Sciences (NCATS), 2019)
“And” between values parts separate entries of the source, which are not always exact repeats. Equal values may be shown once. The whole screen tested about 220,000 compounds, of which about 5,700 (2.6%) were called active. This list was built around the results that the source calls inconclusive (neither active nor inactive); the mix of calls is not that of the screen. Calls come from the whole dose curve; as a rule, active = well fitted inhibition curve with a large enough effect; inconclusive = small, poorly fitted or top-dose-only effect; inactive = no such curve, though single readings can be large or run the other way. A potency beside an inconclusive call is a rough fit, not a confirmed value.

These molecules were tested against Lysine-specific demethylase 5B (Homo sapiens) (UniProt Q9UGL1) (assay: Primary screen for KDM5B Histone Demethylases FDH-coupled qHTS). Conditions: FDH-coupled NADH fluorescence (FDH is formaldehyde dehydrogenase); activity change, negative = inhibition: at 57.7 µM (top of the series) unless noted.
Procedure, shortened: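 Coupled FDH/NAD⁺ fluorescence readout. KDM5BΔAP 200 nM final; compound titration, 10 min RT preincubation; substrate mix 12.5 µM H3K4me3, 25 µM 2-OG, 50 µM Fe(II), 100 µM ascorbate, 0.25 mM NAD⁺, 0.25 U/mL FDH; ΔRFU over 30 min.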
Note: nearly all actives have a fitted effect of over 70% in size.
Potency is the fitted concentration of half-maximal effect; tags give direction and shape of the fitted curve.
Throughout, for activity change, negative = inhibition: 0% is about no effect.

Sequence of UniProt Q9UGL1 (Q9UGL1 whole entry, looked up): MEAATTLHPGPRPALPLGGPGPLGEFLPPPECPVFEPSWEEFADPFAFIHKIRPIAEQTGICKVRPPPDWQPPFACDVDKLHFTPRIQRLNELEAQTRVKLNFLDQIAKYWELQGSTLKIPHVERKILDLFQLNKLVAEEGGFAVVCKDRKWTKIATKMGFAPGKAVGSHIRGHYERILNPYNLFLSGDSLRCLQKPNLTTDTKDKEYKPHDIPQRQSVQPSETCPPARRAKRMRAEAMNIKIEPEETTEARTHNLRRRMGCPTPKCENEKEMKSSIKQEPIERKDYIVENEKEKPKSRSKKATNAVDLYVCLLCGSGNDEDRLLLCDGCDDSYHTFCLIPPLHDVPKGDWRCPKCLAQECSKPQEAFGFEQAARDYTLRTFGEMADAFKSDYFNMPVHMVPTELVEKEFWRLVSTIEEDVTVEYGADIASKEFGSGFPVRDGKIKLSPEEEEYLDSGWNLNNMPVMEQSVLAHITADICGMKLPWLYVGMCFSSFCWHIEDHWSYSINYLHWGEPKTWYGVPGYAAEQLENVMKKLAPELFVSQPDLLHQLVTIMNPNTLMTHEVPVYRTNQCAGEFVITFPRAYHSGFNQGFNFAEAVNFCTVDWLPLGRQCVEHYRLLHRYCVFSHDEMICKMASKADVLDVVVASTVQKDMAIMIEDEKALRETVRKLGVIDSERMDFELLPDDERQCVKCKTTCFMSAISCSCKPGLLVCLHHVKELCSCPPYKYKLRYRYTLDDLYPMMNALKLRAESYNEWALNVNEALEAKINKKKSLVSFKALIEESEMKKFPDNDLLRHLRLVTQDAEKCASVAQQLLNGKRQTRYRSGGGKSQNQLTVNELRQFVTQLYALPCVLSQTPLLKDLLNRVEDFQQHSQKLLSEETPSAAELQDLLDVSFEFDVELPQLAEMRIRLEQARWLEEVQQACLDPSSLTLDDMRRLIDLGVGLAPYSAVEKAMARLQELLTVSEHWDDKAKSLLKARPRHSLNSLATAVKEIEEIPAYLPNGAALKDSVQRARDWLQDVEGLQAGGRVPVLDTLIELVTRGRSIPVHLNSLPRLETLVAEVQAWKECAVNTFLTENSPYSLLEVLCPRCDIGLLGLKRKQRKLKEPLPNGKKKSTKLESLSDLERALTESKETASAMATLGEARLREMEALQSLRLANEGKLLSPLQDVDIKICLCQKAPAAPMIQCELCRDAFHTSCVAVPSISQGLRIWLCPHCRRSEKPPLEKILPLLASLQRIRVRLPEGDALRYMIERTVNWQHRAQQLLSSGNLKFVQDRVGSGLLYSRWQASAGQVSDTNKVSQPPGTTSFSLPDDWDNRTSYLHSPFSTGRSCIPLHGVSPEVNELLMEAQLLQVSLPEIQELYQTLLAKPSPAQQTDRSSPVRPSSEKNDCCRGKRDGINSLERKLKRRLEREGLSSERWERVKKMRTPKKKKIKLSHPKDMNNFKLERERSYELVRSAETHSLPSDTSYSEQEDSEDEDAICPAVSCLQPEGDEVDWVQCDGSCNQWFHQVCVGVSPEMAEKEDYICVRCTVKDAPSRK

SMILES | Potency | activity change, negative = inhibition
Cc1oc(-c2ccc3ccccc3c2)nc1CN1CCNC(=O)C1 | active: 28.2 µM | –
Cc1nn(CC(=O)NCCOc2ccccc2)c(=O)c2ccccc12 | – | inactive: 1.89%
CCc1nn(CC(=O)NCCN(CC)CC)c(=O)c2cc3occc3n12 | – | inconclusive: -34.9% [inhibitor]
CC(C)c1ccc(NC(=O)c2cnc(N3CCOCC3)c3ccccc23)cc1 | inconclusive: 31.6 µM [inhibitor, single point] | –
CCCCCCCC(=O)NNC(=O)c1ccc2ccccc2n1 | inconclusive: 39.8 µM [inhibitor, single point] | –
CCOc1ccccc1CN1C[C@@H]2C(=O)N(CCN3CCc4ccccc4C3)C(=O)[C@@H]2C1 | inconclusive: 35.5 µM [inhibitor, partial curve, poor fit] | –
COc1ccccc1OCCN1C(=O)C2(SC(NC(C)=O)=NN2C(C)=O)c2ccccc21 (configuration not stated) | – | inactive: -1.15%
CC(C)C[C@H]1CCC[C@H](CC(C)C)[N+]1(C)C | – | inactive: 9%
Cc1ccc(N2CC(c3noc(-c4cc5ccccc5[nH]4)n3)CC2=O)cc1 (configuration not stated) | inconclusive: 28.2 µM [inhibitor, partial curve, poor fit] | –
O=C(c1ccccc1)N1CCCn2cc(-c3ccc4c(c3)OCO4)nc21 | inconclusive: 15.8 µM [inhibitor, single point] | –
Cc1cc(S(=O)(=O)Nc2ccccn2)ccc1Cl | inconclusive: 28.2 µM [inhibitor, partial curve, poor fit] | –
CC(C#N)OC(=O)c1cc(-c2cccs2)nc2ccccc12 (configuration not stated) | inconclusive: 25.1 µM [inhibitor, partial curve, poor fit] | –
CC(C#N)OC(=O)c1ccc(-c2ccccc2Cl)o1 (configuration not stated) | inconclusive: 22.4 µM [inhibitor, partial curve, poor fit] | –
COc1cc2c(cc1-c1nccn1-c1ccc(NC(C)=O)cc1)OCCO2 | inconclusive: 25.1 µM [inhibitor, single point] | –
CCc1cccc(NC(=O)c2cnc(N3CCCCC3)c3ccccc23)c1 | inconclusive: 35.5 µM [inhibitor, partial curve, poor fit] | –
Cc1cc(C)c(C(=O)O)c(N2CCC3(CC2)C(C(=O)O)CC(=O)N3C)n1 (configuration not stated) | – | inactive: -4.18%
O=C1Nc2ccccc2CC12CCN(Cc1ccc(F)cc1)C2 (configuration not stated) | – | inactive: 8.82% [at 86.2 µM]
COc1cc(NS(=O)(=O)c2ccc(NC(=O)c3ccc(C(C)=O)cc3)cc2)nc(OC)n1 | – | inconclusive: -35.6% [inhibitor]
COc1ccc(NC(=O)c2sc3nc4c(cc3c2N)CCCCCC4)cc1Cl | inconclusive: 7.94 µM [inhibitor, partial curve, poor fit] | –
CCN1CCN(c2ccc(C(=O)NCCCn3ccnc3C(C)C)cn2)CC1 | inconclusive: 15.8 µM [inhibitor, partial curve, poor fit] | –
COc1cc(F)ccc1-c1ccc(=O)n(Cc2ccc(F)cc2Cl)n1 | inconclusive: 31.6 µM [inhibitor, single point] | –

SMILES | Potency | activity change, negative = inhibition
COc1ccc(-c2ccnc(N[C@H]3CO[C@H]4[C@@H]3OC[C@@H]4NS(=O)(=O)c3ccccc3C#N)n2)cc1 | inconclusive: 17.8 µM [inhibitor, partial curve] | –
Cc1noc(-c2cccn3c(CNC(=O)CCc4ccccc4)nnc23)n1 | active: 22.4 µM | –
O=C(NCC1CN(Cc2cccc(O)c2)CC12CN(c1ccccc1)C2)c1ccccc1 (configuration not stated) | – | inactive: -24.2% [at 86.2 µM]
COC(=O)CCC(=O)N1CCCC(N2CCN(c3cccc(Cl)c3)CC2)C1 (configuration not stated) | inconclusive: 8.91 µM [inhibitor, partial curve, poor fit] | –
COc1ccc(OCC(=O)Nc2ccc3oc(-c4ccc5ccccc5c4)nc3c2)cc1 | inconclusive: 39.8 µM [inhibitor, single point] | –
Cc1ccc(NC(=O)Nc2ccc3nc(N4CCN(C)CC4)cc(C)c3c2)cc1C | inconclusive: 3.16 µM [inhibitor, full curve, poor fit] | –
O=C1C[C@@H]2CCN(C(=O)Nc3ccc(OC(F)(F)F)cc3)C[C@@H]2CCN1CCN1CCNC1=O | inconclusive: 25.1 µM [inhibitor, single point] | –
COc1ccc(C2CC(=O)Nc3c2c(=O)[nH]c2ncnn32)cc1OC (configuration not stated) | – | inactive: -20.9%
COc1ccccc1CCC(=O)N1c2ccccc2CC1c1nc(C2CC2)no1 (configuration not stated) | inconclusive: 20 µM [inhibitor, single point] | –
O=C(C1CCC1)N1CCNc2cnc(Nc3ccccc3)nc2C1 | inconclusive: 35.5 µM [inhibitor, partial curve, poor fit] | –
COc1ccc2cc3cc(C(=O)Nc4ccccc4C)oc3nc2c1 | inconclusive: 2.51 µM [inhibitor, partial curve, poor fit] | –
OCC1CN(c2ncccn2)CC12CCN(Cc1c[nH]c3ccccc13)CC2 (configuration not stated) | inconclusive: 35.5 µM [inhibitor, single point] | –
CCn1cc(CN(C)C(=O)CCC[C@H]2NC[C@@H]3C[C@H]2CN(Cc2ccccc2)C3)c(C)n1 | inconclusive: 12.6 µM [inhibitor, partial curve, poor fit] | –
Cc1nc(C(C)C)sc1C(=O)N1CCCC(OCc2ccccn2)C1 (configuration not stated) | – | inactive: -14.5%
COc1ccc(-c2csc3c2NC(=O)CC3c2cc(C)ccc2C)cc1 (configuration not stated) | – | inactive: 4%
COCCN1C(=O)CO[C@H]2CN(C(=O)c3ccc(F)cc3)C[C@H]21 | inconclusive: 39.8 µM [inhibitor, partial curve] | –
c1cnc2nc(-c3ccsc3)[nH]c2c1 | inconclusive: 141 µM [inhibitor, partial curve, poor fit] and active: 31.6 µM | –
COCCCNc1ncnc2c1CN(C1CCCNCC1)C(=O)CN2C (configuration not stated) | inconclusive: 56.2 µM [inhibitor, partial curve, poor fit] | –
COc1ccc(OC)c(S(=O)(=O)Nc2ccccc2CCc2nc3ccccc3n2C)c1 | – | inactive: 7.64%
COc1ccc(CN2CCN(CC=C(C)C)CC2)cc1 | – | inactive: 7.14%
CC(=O)Nc1cccc(-c2nc(N3CCOCC3)cc3c2CN(Cc2cnn(C)c2)C3=O)c1 | active: 28.2 µM | –
